This passage reports cell count results from the supplement of paper PMC4604168 (melanoma cell lines).

This is one part of the list. Most values come without repeats; read them as rough.
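Further: cell number obtained by counting DAPI-stained nuclei in high-throughput microscope images with image analysis software, screen run in 1,536-well plates.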

In the test the test system is MeWo. Description: cell count relative to DMSO control; melanoma cells; higher = more viable cells. The conditions noted are these: library dose: low library concentration; 72 h.
As for `O=C(CCCCCCC(=O)Nc1ccccc1)NO` [vorinostat] + Cn1cncc1[C@@](N)(c1ccc(Cl)cc1)c1ccc2c(c1)c(-c1cccc(Cl)c1)cc(=O)n2C [tipifarnib] (first compound 0.08 µM, partner dose 0.01 µM), the cell count amounted to 94.4%.

As to `O=C(CCCCCCC(=O)Nc1ccccc1)NO` [vorinostat] + O=C(Nc1cccc(Cl)c1)Nc1ncc(CCNc2ncnc3ccsc23)s1 [SNS314] (first compound 0.08 µM, partner dose 0.0008 µM), the cell count is 98.1%.

On to `Nc1cccc2c1CN(C1CCC(=O)NC1=O)C2=O` (stereo unspecified) [lenalidomide] + Cn1cncc1[C@@](N)(c1ccc(Cl)cc1)c1ccc2c(c1)c(-c1cccc(Cl)c1)cc(=O)n2C [tipifarnib] (first compound 1 µM, partner dose 0.01 µM), for which the cell count was determined as 92.7%.

Regarding `COCC[n+]1c2c(n(Cc3cnccn3)c1C)C(=O)c1ccccc1C2=O` + CC(C)(C)c1cnc(CSc2cnc(NC(=O)C3CCNCC3)s2)o1 [SNS-032] (first compound 0.0004 µM, partner dose 0.01 µM), the cell count was determined as 91.5%.

Turning to `OCc1c[nH]c2ccccc12` [Indole-3-carbinol] + COC(=O)c1sccc1S(=O)(=O)Nc1ccc(Nc2ccccc2)cc1OC [GSK0660] (first compound 0.8 µM, partner dose 1 µM), the cell count stood at 117%.

`COCC[n+]1c2c(n(Cc3cnccn3)c1C)C(=O)c1ccccc1C2=O` + CN(NC(=O)CC(=O)NN(C)C(=S)c1ccccc1)C(=S)c1ccccc1 [STA4783] (first compound 0.0004 µM, partner dose 0.006 µM) gave a cell count of 60.1%.

On to `O=C(CCCCCCC(=O)Nc1ccccc1)NO` [vorinostat] + CO[C@@H]1[C@H](N(C)C(=O)c2ccccc2)C[C@H]2O[C@]1(C)n1c3ccccc3c3c4c(c5c6ccccc6n2c5c31)C(=O)NC4 [Midostaurin] (first compound 0.08 µM, partner dose 0.08 µM), for which the cell count was found to be 74.4%.

In the case of `OCc1c[nH]c2ccccc12` [Indole-3-carbinol] + O=S(=O)(c1ccccc1)N(CC(F)(F)F)c1ccc(C(O)(C(F)(F)F)C(F)(F)F)cc1 [T0901317] (first compound 0.8 µM, partner dose 1.4 µM), the cell count amounted to 106%.

Compound `C#Cc1cccc(Nc2ncnc3cc(OCCOC)c(OCCOC)cc23)c1` [erlotinib] + CC(C)(C)c1cnc(CSc2cnc(NC(=O)C3CCNCC3)s2)o1 [SNS-032] (first compound 0.8 µM, partner dose 0.01 µM) displayed a cell count of 95.9%.

In turn, `OCc1c[nH]c2ccccc12` [Indole-3-carbinol] + Oc1cc(-c2nc(-c3ccccc3)[nH]c2-c2ccncc2)ccc1Cl [L779450] (first compound 0.8 µM, partner dose 0.2 µM) came in with a cell count of 112%.

Consider `Clc1ccc(Nc2nnc(Cc3ccncc3)c3ccccc23)cc1` [vatalanib] + O=C1NC(=O)/C(=C/c2ccc(-c3ccc(F)cc3O)o2)S1 [AS252424] (first compound 2 µM, partner dose 1 µM), for which the cell count amounted to 89%.

`C#Cc1cccc(Nc2ncnc3cc(OCCOC)c(OCCOC)cc23)c1` [erlotinib] + CN(C)S(=O)(=O)c1ccc2c(c1)/C(=C/c1cc3c([nH]1)CCCC3)C(=O)N2 [SU6656] (first compound 0.8 µM, partner dose 0.4 µM) came in with a cell count of 76.7%.

For `Clc1ccc(Nc2nnc(Cc3ccncc3)c3ccccc23)cc1` [vatalanib] + O=C(Nc1cccc(Cl)c1)Nc1ncc(CCNc2ncnc3ccsc23)s1 [SNS314] (first compound 2 µM, partner dose 0.0008 µM), the cell count is 78.8%.

Compound `C#Cc1cccc(Nc2ncnc3cc(OCCOC)c(OCCOC)cc23)c1` [erlotinib] + Cc1ccc(NC(=O)c2cccc(N(C)C)c2)cc1NC(=O)c1ccc(O)cc1 [ZM336372] (first compound 0.8 µM, partner dose 2 µM) had a cell count of 109%.

Turning to `Clc1ccc(Nc2nnc(Cc3ccncc3)c3ccccc23)cc1` [vatalanib] + CC1(C)NC(=O)N(c2ccc([N+](=O)[O-])c(C(F)(F)F)c2)C1=O [nilutamide] (first compound 2 µM, partner dose 1 µM), the cell count is 94.1%.

For `Clc1ccc(Nc2nnc(Cc3ccncc3)c3ccccc23)cc1` [vatalanib] + Cc1ccc(NC(=O)c2cccc(N(C)C)c2)cc1NC(=O)c1ccc(O)cc1 [ZM336372] (first compound 2 µM, partner dose 2 µM), the cell count was determined as 96.4%.
